Results taken from the supplement of paper PMC4967469.
A lower IC50 marks a more sensitive line; a limit (>, <) means that the fit lies beyond the doses tested. AUC is the area under the same curve over the 256-fold range up to the top dose, as a fraction; the more sensitive the line, the further below 1.

Compound: N#CC[C@H](C1CCCC1)n1cc(-c2ncnc3[nH]ccc23)cn1 [Ruxolitinib]
Experiment: Viability of human cancer cell lines after 72 h of drug (GDSC screen)
Method: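 Human cancer cell lines in 384-well plates, medium with 10% serum, drug for 72 h over a 256-fold dose range (nine 2-fold or five 4-fold steps up to the top dose). Adherent lines were fixed and stained with the nucleic acid dye Syto60, suspension lines read with resazurin; signal relative to control wells, capped at 0 and 100%. One two-parameter sigmoid per drug and line, fitted in a mixed model over all curves with the slope shared within a line.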

Row | Cell Line | AUC | IC50 [µM]
1 | Detroit562 (head and neck, adherent, top dose 5.24 µM) | 0.988 | > 5.24
2 | DoTc2-4510 (cervix, adherent, top dose 5.24 µM) | 0.987 | > 5.24
3 | EB2 (Burkitt lymphoma, suspension, top dose 5.24 µM) | 0.963 | > 5.24
4 | EB-3 (Burkitt lymphoma, suspension, top dose 5.24 µM) | 0.95 | > 5.24
5 | EBC-1 (lung squamous cell carcinoma, adherent, top dose 5.24 µM) | 0.983 | > 5.24
6 | EC-GI-10 (oesophagus, adherent, top dose 5.24 µM) | 0.989 | > 5.24
7 | ECC10 (stomach, suspension, top dose 5.24 µM) | 0.979 | > 5.24
8 | EFM-19 (breast, adherent, top dose 5.24 µM) | 0.956 | > 5.24
9 | EFM-192A (breast, adherent, top dose 5.24 µM) | 0.976 | > 5.24
10 | EFO-21 (ovary, adherent, top dose 5.24 µM) | 0.975 | > 5.24
11 | EFO-27 (ovary, adherent, top dose 5.24 µM) | 0.98 | > 5.24
12 | EGI-1 (biliary tract, adherent, top dose 5.24 µM) | 0.974 | > 5.24
13 | EJM (lymphoid neoplasm, semi-adherent, top dose 5.24 µM) | 0.906 | 5.15
14 | EKVX (lung adenocarcinoma, adherent, top dose 5.24 µM) | 0.969 | > 5.24
15 | EM-2 (chronic myeloid leukaemia, suspension, top dose 5.24 µM) | 0.974 | > 5.24
16 | EMC-BAC-1 (lung adenocarcinoma, adherent, top dose 5.24 µM) | 0.956 | > 5.24
17 | EMC-BAC-2 (lung adenocarcinoma, adherent, top dose 5.24 µM) | 0.98 | > 5.24
18 | EN (endometrium, adherent, top dose 5.24 µM) | 0.976 | > 5.24
19 | EPLC-272H (lung squamous cell carcinoma, adherent, top dose 5.24 µM) | 0.968 | > 5.24
20 | ES1 (Ewing sarcoma, adherent, top dose 5.24 µM) | 0.984 | > 5.24

Row | Cell Line | AUC | IC50 [µM]
21 | ES3 (Ewing sarcoma, adherent, top dose 5.24 µM) | 0.956 | > 5.24
22 | ES4 (Ewing sarcoma, adherent, top dose 5.24 µM) | 0.981 | > 5.24
23 | ES5 (Ewing sarcoma, adherent, top dose 5.24 µM) | 0.963 | > 5.24
24 | ES6 (Ewing sarcoma, adherent, top dose 5.24 µM) | 0.924 | > 5.24
25 | ES7 (Ewing sarcoma, adherent, top dose 5.24 µM) | 0.955 | > 5.24
26 | ES8 (Ewing sarcoma, adherent, top dose 5.24 µM) | 0.987 | > 5.24
27 | ES-2 (ovary, adherent, top dose 5.24 µM) | 0.991 | > 5.24
28 | ESO26 (oesophagus, adherent, top dose 5.24 µM) | 0.981 | > 5.24
29 | ESO51 (oesophagus, semi-adherent, top dose 5.24 µM) | 0.979 | > 5.24
30 | ESS-1 (endometrium, adherent, top dose 5.24 µM) | 0.985 | > 5.24
31 | ETK-1 (biliary tract, adherent, top dose 5.24 µM) | 0.979 | > 5.24
32 | EVSA-T (breast, adherent, top dose 5.24 µM) | 0.991 | > 5.24
33 | EW-1 (Ewing sarcoma, semi-adherent, top dose 5.24 µM) | 0.982 | > 5.24
34 | EW-3 (Ewing sarcoma, adherent, top dose 5.24 µM) | 0.983 | > 5.24
35 | EW-7 (Ewing sarcoma, semi-adherent, top dose 5.24 µM) | 0.99 | > 5.24
36 | EW-11 (Ewing sarcoma, adherent, top dose 5.24 µM) | 0.98 | > 5.24
37 | EW-13 (Ewing sarcoma, suspension, top dose 5.24 µM) | 0.979 | > 5.24
38 | EW-16 (Ewing sarcoma, adherent, top dose 5.24 µM) | 0.985 | > 5.24
39 | EW-18 (Ewing sarcoma, suspension, top dose 5.24 µM) | 0.983 | > 5.24
40 | EW-24 (Ewing sarcoma, semi-adherent, top dose 5.24 µM) | 0.992 | > 5.24

Row | Cell Line | AUC | IC50 [µM]
41 | EoL-1-cell (haematopoietic neoplasm, suspension, top dose 5.24 µM) | 0.975 | > 5.24
42 | FADU (head and neck, adherent, top dose 5.24 µM) | 0.988 | > 5.24
43 | FLO-1 (oesophagus, adherent, top dose 5.24 µM) | 0.973 | > 5.24
44 | FTC-133 (thyroid, adherent, top dose 5.24 µM) | 0.986 | > 5.24
45 | FU97 (stomach, adherent, top dose 5.24 µM) | 0.983 | > 5.24
46 | FU-OV-1 (ovary, adherent, top dose 5.24 µM) | 0.98 | > 5.24
47 | Farage (B-cell lymphoma, suspension, top dose 5.24 µM) | 0.993 | > 5.24
48 | G-292 Clone A141B1 (osteosarcoma, adherent, top dose 5.24 µM) | 0.972 | > 5.24
49 | G-401 (kidney, adherent, top dose 5.24 µM) | 0.978 | > 5.24
50 | G-402 (soft tissue, adherent, top dose 5.24 µM) | 0.971 | > 5.24
51 | G-MEL (melanoma, adherent, top dose 5.24 µM) | 0.975 | > 5.24
52 | GAMG (glioma, adherent, top dose 5.24 µM) | 0.972 | > 5.24
53 | GB-1 (glioma, adherent, top dose 5.24 µM) | 0.983 | > 5.24
54 | GCIY (stomach, adherent, top dose 5.24 µM) | 0.984 | > 5.24
55 | GCT (soft tissue, adherent, top dose 5.24 µM) | 0.989 | > 5.24
56 | GDM-1 (acute myeloid leukaemia, suspension, top dose 5.24 µM) | 0.827 | 3.01
57 | GI-1 (glioma, adherent, top dose 5.24 µM) | 0.971 | > 5.24
58 | GI-ME-N (neuroblastoma, adherent, top dose 5.24 µM) | 0.953 | > 5.24
59 | GMS-10 (glioma, adherent, top dose 5.24 µM) | 0.979 | > 5.24
60 | GOTO (neuroblastoma, adherent, top dose 5.24 µM) | 0.98 | > 5.24
